# Measured values reported in the supplement of paper PMC12217912.
# Some of the results follow. Sequences were assembled here from the parent chain. Inactive controls read about 0.05.
# B1: TEV protease; numbered along this chain (parent)
# chain: MGESLFKGPRDYNPISSSICHLTNESDGHTTSLYGIGFGPFIITNKHLFRRNNGTLVVQSLHGVFKVKDTTTLQQHLVDGRDMIIIRMPKDFPPFPQKLKFREPQREERICLVTTNFQTKSMSSMVSDTSCTFPSGDGIFWKHWIQTKDGQCGSPLVSTRDGFIVGIHSASNFTNTNNYFTSVPKNFMELLTNQEAQQWVSGWRLNADSVLWGGHKVFMVKPEEPFQPVKEATQL
# Variants of: B1
# Test: raw area under fraction-flipped curve 0-4 h after induction (AUC4h, not background-subtracted), DNA-recorder readout of cleavage of the substrate (dimensionless); higher = more cleavage of the substrate by the protease variant
# Conditions: temperature: 34 °C; time window: 0-4 h after rhamnose induction
# Procedure: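 In vivo DNA recorder in E. coli TOP10(DE3) ΔrhaA at 34 °C. Each TEVp single-site mutant (parent TEVp 0) is paired with a single-site variant of the 7-mer TEVs (canonical ENLYFQ|S). The substrate sits between flexible linkers in a Bxb1-sfGFP-TEVs-SsrA fusion, so cleavage stabilises Bxb1 and speeds flipping of a recombination array, read by NGS. The value is the raw area under the fraction-flipped curve over 0-4 h after rhamnose induction (AUC4h), with ≥20 reads per time point. It is not background-subtracted; inactive controls average about 0.047.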
# 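Note: Bxb1 expression induced with 0.2% (w/v) L-rhamnose at OD600 near 0.5, cultures sampled hourly, flipped fraction per protease–substrate barcode pair counted by paired-end Illumina sequencing.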
Variant,area with substrate EALYFQS,area with substrate ECLYFQS,area with substrate EDLYFQS,area with substrate EELYFQS,area with substrate EFLYFQS,area with substrate EGLYFQS,area with substrate EHLYFQS,area with substrate EILYFQS,area with substrate ELLYFQS,area with substrate EPLYFQS,area with substrate EQLYFQS,area with substrate ESLYFQS,area with substrate EVLYFQS,area with substrate EWLYFQS,area with substrate EYLYFQS,area with substrate EKLYFQS,area with substrate ERLYFQS,area with substrate ETLYFQS,area with substrate EMLYFQS
MGESLFKGPRDYNPISSSICHLTNESDGHTTSLYGIGFGPFIITNKHLFRRNNGTLVVQSLHGVFKVKDTTTLQQHLVDGRDMIIIRMPKDFPPFPQKLKFREPQREERHCLVTTNFQTKSMSSMVSDTSCTFPSGDGIFWKHWIQTKDGQCGSPLVSTRDGFIVGIHSASNFTNTNNYFTSVPKNFMELLTNQEAQQWVSGWRLNADSVLWGGHKVFMVKPEEPFQPVKEATQL [I110H],0.0646,0.0631,0.0727,0.0422,0.0362,0.0708,0.0666,0.062,0.0438,0.0535,0.0605,0.0518,0.0644,0.0489,0.0678,,,,
MGESLFKGPRDYNPISSSICHLTNESDGHTTSLYGIGFGPFIITNKHLFRRNNGTLVVQSLHGVFKVKDTTTLQQHLVDGRDMIIIRMPKDFPPFPQKLKFREPQREERIKLVTTNFQTKSMSSMVSDTSCTFPSGDGIFWKHWIQTKDGQCGSPLVSTRDGFIVGIHSASNFTNTNNYFTSVPKNFMELLTNQEAQQWVSGWRLNADSVLWGGHKVFMVKPEEPFQPVKEATQL [C111K],0.173,0.111,0.145,0.14,,0.104,,0.159,,,0.122,0.137,,0.0897,,0.11,0.0966,0.126,
MGESLFKGPRDYNPISSSICHLTNESDGHTTSLYGIGFGPFIITNKHLFRRNNGTLVVQSLHGVFKVKDTTTLQQHLVDGRDMIIIRMPKDFPPFPQKLKFREPQREYRICLVTTNFQTKSMSSMVSDTSCTFPSGDGIFWKHWIQTKDGQCGSPLVSTRDGFIVGIHSASNFTNTNNYFTSVPKNFMELLTNQEAQQWVSGWRLNADSVLWGGHKVFMVKPEEPFQPVKEATQL [E108Y],0.0706,0.0484,0.0648,0.0617,0.0525,0.0609,,0.0645,0.0612,0.0621,0.0757,0.0694,0.062,,0.0655,0.0389,0.0761,0.0681,0.0609
MGESLFKGPRDYNPISSSICHLTNESDGHTTSLYGIGFGPFIITNKHLFRRNNGTLVVQSLHGVFKVKDTTTLQQHLVDGRDMIIIRMPKDFPPFPQKLKFREPQREPRICLVTTNFQTKSMSSMVSDTSCTFPSGDGIFWKHWIQTKDGQCGSPLVSTRDGFIVGIHSASNFTNTNNYFTSVPKNFMELLTNQEAQQWVSGWRLNADSVLWGGHKVFMVKPEEPFQPVKEATQL [E108P],0.0695,0.0538,0.0419,0.0986,,0.0782,0.0554,0.0442,,0.0742,0.0653,0.0528,0.0836,0.0664,,,0.0556,0.061,
MGESLFKGPRDYNPISSSICHLTNESDGHTTSLYGIGFGPFIITNKHLFRRNNGTLVVQSLHGVFKVKDTTTLQQHLVDGRDMIIIRMPKDFPPFPQKLKFREPQREERICLHTTNFQTKSMSSMVSDTSCTFPSGDGIFWKHWIQTKDGQCGSPLVSTRDGFIVGIHSASNFTNTNNYFTSVPKNFMELLTNQEAQQWVSGWRLNADSVLWGGHKVFMVKPEEPFQPVKEATQL [V113H],0.106,0.115,0.121,0.0814,0.0931,0.0936,0.126,0.0782,0.0906,0.102,0.151,0.129,0.0789,0.0729,,0.114,0.0953,,
MGESLFKGPRDYNPISSSICHLTNESDGHTTSLYGIGFGPFIITNKHLFRRNNGTLVVQSLHGVFKVKDTTTLQQHLVDGRDMIIIRMPKDFPPFPQKLKFREPQREERICLCTTNFQTKSMSSMVSDTSCTFPSGDGIFWKHWIQTKDGQCGSPLVSTRDGFIVGIHSASNFTNTNNYFTSVPKNFMELLTNQEAQQWVSGWRLNADSVLWGGHKVFMVKPEEPFQPVKEATQL [V113C],0.102,0.0812,0.115,0.0783,,,,0.0974,0.113,,0.125,,0.0738,0.129,0.112,0.111,,0.113,0.106
MGESLFKGPRDYNPISSSICHLTNESDGHTTSLYGIGFGPFIITNKHLFRRNNGTLVVQSLHGVFKVKDTTTLQQHLVDGRDMIIIRMPKDFPPFPQKLKFREPQREERICLDTTNFQTKSMSSMVSDTSCTFPSGDGIFWKHWIQTKDGQCGSPLVSTRDGFIVGIHSASNFTNTNNYFTSVPKNFMELLTNQEAQQWVSGWRLNADSVLWGGHKVFMVKPEEPFQPVKEATQL [V113D],0.0569,0.0652,0.0531,0.0551,,,0.0478,0.045,0.056,0.0575,0.057,0.0535,0.0585,0.0469,0.047,0.0547,0.0629,,
MGESLFKGPRDYNPISSSICHLTNESDGHTTSLYGIGFGPFIITNKHLFRRNNGTLVVQSLHGVFKVKDTTTLQQHLVDGRDMIIIRMPKDFPPFPQKLKFREPQREEPICLVTTNFQTKSMSSMVSDTSCTFPSGDGIFWKHWIQTKDGQCGSPLVSTRDGFIVGIHSASNFTNTNNYFTSVPKNFMELLTNQEAQQWVSGWRLNADSVLWGGHKVFMVKPEEPFQPVKEATQL [R109P],0.114,0.11,0.138,0.114,0.0925,0.129,0.118,0.0838,,,0.106,0.105,0.0811,0.1,0.114,0.1,0.114,,0.112
MGESLFKGPRDYNPISSSICHLTNESDGHTTSLYGIGFGPFIITNKHLFRRNNGTLVVQSLHGVFKVKDTTTLQQHLVDGRDMIIIRMPKDFPPFPQKLKFREPQREECICLVTTNFQTKSMSSMVSDTSCTFPSGDGIFWKHWIQTKDGQCGSPLVSTRDGFIVGIHSASNFTNTNNYFTSVPKNFMELLTNQEAQQWVSGWRLNADSVLWGGHKVFMVKPEEPFQPVKEATQL [R109C],0.0695,0.0964,0.117,,,0.082,,0.0867,,0.151,0.142,0.104,0.098,,0.101,0.0995,0.0831,0.15,0.091
